The list shows a part of the results.
How the values were obtained:
Assay in all cases: glycan array binding signal (z-score within array); higher = stronger binding
Conditions in all cases: glycan notation: IUPAC condensed, linker removed
GalNAc(b1-3)Gal = target: GalNAc(b1-3)Gal
Outline: (§1)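 Arrays were curated from the Consortium for Functional Glycomics database, 3228 in total, and kept only where the protein sequence was available. Binding is expressed as a within-array Z-score. This score was averaged across arrays of the same protein sequence at different concentrations or buffers and across linkers, and negative values can be read as non-binding.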

[1] = target: GalNAc(b1-3)Gal(a1-4)Gal(b1-4)GlcNAc
Outline: as §1

[2] = target: GalNAc(b1-3)Gal(a1-4)Gal(b1-4)GlcNAc(b1-3)Gal(b1-4)Glc
Outline: as §1

[3] = target: GalNAc(b1-3)Gal(a1-6)Gal(b1-4)Glc
Outline: as §1

GalNAc(b1-3)GalNAc = target: GalNAc(b1-3)GalNAc
Outline: as §1

GalNAc(b1-3)GlcNAc = target: GalNAc(b1-3)GlcNAc
Outline: as §1

GalNAc(b1-4)Gal(b1-4)Glc = target: GalNAc(b1-4)Gal(b1-4)Glc
Outline: as §1

GalNAc(b1-4)GlcNAc = target: GalNAc(b1-4)GlcNAc
Outline: as §1

[4] = target: GalNAc(b1-4)GlcNAc(b1-2)Man
Outline: as §1

[5] = target: GalNAc(b1-4)GlcNAc(b1-2)Man(a1-3)[GalNAc(b1-4)GlcNAc(b1-2)Man(a1-6)]Man(b1-4)GlcNAc(b1-4)GlcNAc
Outline: as §1

[6] = target: GalNAc(b1-4)GlcNAc(b1-3)GalNAc(b1-4)GlcNAc
Outline: as §1

GalNAc(b1-4)GlcNAc6S = target: GalNAc(b1-4)GlcNAc6S
Outline: as §1

GalNAc(b1-6)GalNAc = target: GalNAc(b1-6)GalNAc
Outline: as §1

GalNAc3S(b1-4)GlcNAc = target: GalNAc3S(b1-4)GlcNAc
Outline: as §1

GalNAc3S(b1-4)GlcNAc3S = target: GalNAc3S(b1-4)GlcNAc3S
Outline: as §1

[7] = target: GalNAc3S(b1-4)[Fuc(a1-3)]GlcNAc
Outline: as §1

GalNAc4S6S(b1-4)GlcNAc = target: GalNAc4S6S(b1-4)GlcNAc
Outline: as §1

GalNAc6S(b1-4)GlcNAc = target: GalNAc6S(b1-4)GlcNAc
Outline: as §1

Glc(a1-4)Glc = target: Glc(a1-4)Glc
Outline: as §1

[8] = target: Glc(a1-4)Glc(a1-4)Glc(a1-4)Glc
Outline: as §1

Glc(a1-6)Glc(a1-6)Glc = target: Glc(a1-6)Glc(a1-6)Glc
Outline: as §1

[9] = target: Glc(a1-6)Glc(a1-6)Glc(a1-6)Glc
Outline: as §1

Glc(b1-4)Glc = target: Glc(b1-4)Glc
Outline: as §1

Glc(b1-6)Glc = target: Glc(b1-6)Glc
Outline: as §1

GlcA(b1-3)Gal = target: GlcA(b1-3)Gal
Outline: as §1

GlcA(b1-3)GlcNAc = target: GlcA(b1-3)GlcNAc
Outline: as §1

GlcA(b1-6)Gal = target: GlcA(b1-6)Gal
Outline: as §1

[10] = target: GlcA3S(b1-3)Gal(b1-4)GlcNAc(b1-2)Man
Outline: as §1

[11] = target: GlcA3S(b1-3)Gal(b1-4)GlcNAc(b1-3)Gal(b1-4)Glc
Outline: as §1

[12] = target: GlcNAc(a1-3)Gal(b1-4)GlcNAc
Outline: as §1

[13] = target: GlcNAc(a1-4)Gal(b1-3)GlcNAc
Outline: as §1

[14] = target: GlcNAc(a1-4)Gal(b1-4)GalNAc
Outline: as §1

[15] = target: GlcNAc(a1-4)Gal(b1-4)GlcNAc
Outline: as §1

[16] = target: GlcNAc(a1-4)Gal(b1-4)GlcNAc(b1-3)Gal(b1-4)Glc
Outline: as §1

[17] = target: GlcNAc(a1-4)Gal(b1-4)GlcNAc(b1-3)Gal(b1-4)GlcNAc
Outline: as §1

[18] = target: GlcNAc(a1-4)Gal(b1-4)GlcNAc(b1-3)Gal(b1-4)GlcNAc(b1-3)Gal(b1-4)GlcNAc
Outline: as §1

[19] = target: GlcNAc(a1-4)Gal(b1-4)GlcNAc(b1-3)Gal(b1-4)[Fuc(a1-3)]GlcNAc(b1-3)Gal(b1-4)[Fuc(a1-3)]GlcNAc
Outline: as §1

[20] = target: GlcNAc(a1-6)Gal(b1-4)GlcNAc
Outline: as §1

B1: Cohesin-mDCIR (Macaca mulatta) (protein)
chain: GLDDLDAVRIKVDTVNAKPGDTVRIPVRFSGIPSKGIANCDFVYSYDPNVLEIIEIEPGDIIVDPNPDKSFDTAVYPDRKIIVFLFAEDSGTGAYAITKDGVFATIVAKVKEGAPNGLSVIKFVEVGGFANNDLVEQKTQFFDGGVNVGDTTEPATPTTPVTTPTTTDDLDAASFQKYSQLLEKMTTKDLVHTTLECVKKNMTTEETAWSCCPKNWKPFSSNCYFISTESASWQKSEKDCARMEAHLLVINTREEQDFIFQNLQEESAYFVGLSDPEGQRHWQWVDRTPYNESSTFWHPHEPSDPDERCVVLNFRKTPKRWGWNDVHCIVHQRSVCEMMKIHLHHHHHH
glycan array binding signal (z-score) (GalNAc(b1-3)Gal): 2.45
glycan array binding signal (z-score) [1]: 1.26
glycan array binding signal (z-score) [2]: 0.862
glycan array binding signal (z-score) [3]: 2.77
glycan array binding signal (z-score) (GalNAc(b1-3)GalNAc): -0.19
glycan array binding signal (z-score) (GalNAc(b1-3)GlcNAc): 0.282
glycan array binding signal (z-score) (GalNAc(b1-4)Gal(b1-4)Glc): -0.27
glycan array binding signal (z-score) (GalNAc(b1-4)GlcNAc): 0.436
glycan array binding signal (z-score) [4]: 0.485
glycan array binding signal (z-score) [5]: -0.067
glycan array binding signal (z-score) [6]: 0.414
glycan array binding signal (z-score) (GalNAc(b1-4)GlcNAc6S): 0.245
glycan array binding signal (z-score) (GalNAc(b1-6)GalNAc): -0.439
glycan array binding signal (z-score) (GalNAc3S(b1-4)GlcNAc): -0.436
glycan array binding signal (z-score) (GalNAc3S(b1-4)GlcNAc3S): -0.312
glycan array binding signal (z-score) [7]: -0.411
glycan array binding signal (z-score) (GalNAc4S6S(b1-4)GlcNAc): -0.28
glycan array binding signal (z-score) (GalNAc6S(b1-4)GlcNAc): 0.734
glycan array binding signal (z-score) (Glc(a1-4)Glc): -0.102
glycan array binding signal (z-score) [8]: -0.351
glycan array binding signal (z-score) (Glc(a1-6)Glc(a1-6)Glc): 0.1
glycan array binding signal (z-score) [9]: -0.217
glycan array binding signal (z-score) (Glc(b1-4)Glc): 0.092
glycan array binding signal (z-score) (Glc(b1-6)Glc): 0.409
glycan array binding signal (z-score) (GlcA(b1-3)Gal): -0.398
glycan array binding signal (z-score) (GlcA(b1-3)GlcNAc): -0.281
glycan array binding signal (z-score) (GlcA(b1-6)Gal): -0.382
glycan array binding signal (z-score) [10]: -0.374
glycan array binding signal (z-score) [11]: -0.451
glycan array binding signal (z-score) [12]: 0.365
glycan array binding signal (z-score) [13]: -0.401
glycan array binding signal (z-score) [14]: -0.406
glycan array binding signal (z-score) [15]: -0.389
glycan array binding signal (z-score) [16]: -0.301
glycan array binding signal (z-score) [17]: -0.366
glycan array binding signal (z-score) [18]: -0.36
glycan array binding signal (z-score) [19]: -0.22
glycan array binding signal (z-score) [20]: -0.262

From the supplement of paper PMC8728848
